Laboratory results taken from PubChem BioAssay AID651813 (National Center for Advancing Translational Sciences (NCATS), 2012).
Hit rate of the full screen: of about 2,100 compounds, about 1,100 (52%) were called active. The set was probably picked from earlier hits. Inconclusive results, whose numbers are uncertain, are shown with a selection of clear calls. Calls follow the shape of the dose curve; as a rule, active = well fitted inhibition curve with a large enough effect; inconclusive = small, poorly fitted or top-dose-only effect; inactive = no such curve, though single readings can be large or run the other way. No potency is given beside an inconclusive call; the fits are too rough.

target: DNA dC->dU-editing enzyme APOBEC-3G (Homo sapiens) (UniProt Q9HC16); experiment: qHTS for inhibitors of Vif-A3G interactions: Cherry picks counterscreen; conditions: HeLa A3G-eYFP + Vif (tagged APOBEC3G with the HIV-1 protein that degrades it), eYFP fluorescence, 24 h;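 also: hits raise yellow fluorescence by blocking Vif-driven A3G-eYFP degradation; nearly all actives have a fitted effect of over 70% in size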;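 as to max response: max response given as percent of control signal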
Procedure, shortened: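 Readout is eYFP fluorescence (488 nm excitation, 500-530 nm emission) measured on Acumen Explorer after 24 h compound exposure, several concentrations, at 37 deg C. Cells: HeLa stably co-expressing Vif and C-terminally eYFP-tagged A3G; MG132 positive control.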
Potency is read from the fitted curve at half-maximal effect; tags tell the direction and shape of the fitted curve.

UniProt Q9HC16, sequence (Q9HC16 whole entry, looked up): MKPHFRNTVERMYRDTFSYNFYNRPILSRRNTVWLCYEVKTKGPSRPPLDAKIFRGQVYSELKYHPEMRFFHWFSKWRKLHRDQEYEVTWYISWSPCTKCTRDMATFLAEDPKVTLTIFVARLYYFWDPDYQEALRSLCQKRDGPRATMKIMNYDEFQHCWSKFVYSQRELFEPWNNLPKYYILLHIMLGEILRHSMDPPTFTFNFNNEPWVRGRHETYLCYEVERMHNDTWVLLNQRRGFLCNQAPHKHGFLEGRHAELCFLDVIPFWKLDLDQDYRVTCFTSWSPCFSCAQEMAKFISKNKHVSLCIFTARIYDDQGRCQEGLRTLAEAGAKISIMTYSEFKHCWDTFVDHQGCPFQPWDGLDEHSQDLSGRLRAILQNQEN

Compound | max response | Potency
COCCCNC(=S)N/N=C/c1ccc(OC)cc1 | inactive: -8.47% | –
O=C(COC(=O)C12CC3CC(CC(Cl)(C3)C1)C2)N1CCCCC1 | inactive: -19.2% | –
Cc1ccc2nc(-c3ccccn3)c(Nc3ccccc3C)n2c1 | inactive: 5.76% | –
COc1ccccc1N1CCN(C(=O)c2ccc3ncsc3c2)CC1 | – | active: 17.7 µM
CC1=NOC(=O)/C1=C\c1ccc(-c2ccc(Br)cc2)o1 | – | inconclusive [inhibitor, partial curve, poor fit]
COC(=O)C1C2CC3c4[nH]c5cc(OC)ccc5c4CCN3CC2CC(OC2CCCCO2)C1OC (configuration not stated) | – | inconclusive [inhibitor, single point]
COc1ccc(N/C=C/C(=O)c2sc(-c3ccccc3)nc2C)cc1 | – | inconclusive [inhibitor, single point]
CCCc1nc2c(C)cc(Br)cn2c1Cc1ccccc1 | inactive: -5.65% | –
NC(=O)c1ccc(NC(=O)C#Cc2ccccc2)cc1 | – | inconclusive [inhibitor, single point]
CCC1CCCCN1CCCNC(=O)c1ccc2c(c1)N(Cc1ccccc1F)C(=O)c1ccccc1S2(=O)=O (configuration not stated) | – | active: 4.61 µM
Cc1cc(SCC(=O)c2cccs2)nc2ccccc12 | – | inconclusive [inhibitor, single point]
O=C(NCCC1=CCCCC1)C1CCC(CNc2nc(=S)[nH]c3ccccc23)CC1 (configuration not stated) | inactive: -2.72% | –
CC(=O)Nc1ccc(/C=C/C(=O)c2ccc(-n3nncc3-c3ccccc3)cc2)cc1 | – | inconclusive [inhibitor, single point]
O=S(=O)(Nc1nc2ccccc2nc1N1CCc2ccccc2C1)c1ccc(Br)cc1 | – | inconclusive [inhibitor, single point]
O=C(NNc1ncc(C(F)(F)F)cc1Cl)c1c(Cl)cccc1Cl | – | active: 14 µM
O=C(Nc1cc(C(F)(F)F)ccc1-n1cncn1)c1ccc([N+](=O)[O-])o1 | – | inconclusive [inhibitor, single point]
CC(C)(C)c1ccc(Cn2c(=O)cnc3ccccc32)cc1 | inactive: 3.64% | –
CCn1c(=O)c2cc(C(=O)NCCCOC)sc2c2ccccc21 | – | active: 7.04 µM
Cc1ccc(-n2c(=O)c3ccc(C(=O)NCc4ccccc4Cl)cc3n(CC(=O)Nc3cccc(Cl)c3)c2=O)cc1 | inactive: -24% | –
COc1ccc(Cl)cc1NC(=O)CSc1nc2c([nH]c3ccccc32)c(=O)n1-c1ccccc1 | – | inconclusive [inhibitor, single point]
COc1cc2c3nnc(-c4ccccc4)c-3cn(Cc3ccccc3F)c2cc1OC | – | inconclusive [inhibitor, single point]
CC1(C(=O)NCc2ccco2)Cc2c(-c3ccc(C(N)=O)cc3)ccnc2O1 (configuration not stated) | – | inconclusive [inhibitor, full curve]
N#CCc1nc2ccc(S(=O)(=O)N3CCOCC3)cc2s1 | – | inconclusive [inhibitor, single point]
O=c1[nH]c2ccccc2nc1/C=C/c1ccc(F)cc1 | – | inconclusive [inhibitor, single point]

Compound | max response | Potency
C=CCSc1nnc(C)c(/C=C/Nc2ccc(Cl)cc2)n1 | – | active: 20.6 µM
COc1cc(-c2noc(C)c2/C=C/c2cccc([N+](=O)[O-])c2)cc(OC)c1OC | – | inconclusive [inhibitor, full curve, poor fit]
Cc1nc(SCC(=O)c2ccccc2)c(C#N)c(-c2ccco2)c1C(=O)NCc1ccco1 | – | inconclusive [inhibitor, single point]
O=C(c1ccccn1)C1CCCN(Cc2cn[nH]c2-c2cc3ccccc3o2)C1 (configuration not stated) | inactive: 0.488% | –
COc1ccc2nc3sc(C(=O)Nc4cc(Cl)c(OC)cc4OC)cc3cc2c1 | – | inconclusive [inhibitor, single point]
CCOc1cc(N(CC)CC)ccc1/C=C(/C#N)c1nc2ccccc2[nH]1 | inactive: 57.6% | –
Cc1cc(NC(=O)CSc2nc3c(C)cccc3cc2C#N)no1 | – | active: 4.11 µM
N#CC(C(=S)Nc1ccccc1)c1nc2ccccc2[nH]1 (configuration not stated) | inactive: -4.48% | –
Cc1cc(-c2ccccc2)c2c3c(c(-c4ccccc4)n2n1)c(=O)n(C)c(=O)n3C | inactive: 9.15% | –
CCNc1ccc(Br)cc(C(=O)/C=C/c2ccc3c(c2)OCO3)c1=O | – | inconclusive [inhibitor, single point]
CCN1/C(=C/c2ccc3ccccc3[n+]2CC)C=Cc2ccccc21 | – | inconclusive [inhibitor, single point]
C/C(=N\NC(N)=S)C12CC3CC(CC(C3)C1)C2 | inactive: 27.9% | –
Cc1cc(C)c2nc(SCC(=O)N3CC(=O)Nc4ccccc43)c(C#N)cc2c1 | – | active: 1.4 µM
O=C(Nc1nc2c(F)cccc2s1)c1ccc([N+](=O)[O-])o1 | inactive: -8.08% | –
CC(C)Cn1c(N)c(C(=O)COC(=O)c2ccc([N+](=O)[O-])o2)c(=O)n(C)c1=O | inactive: 8.96% | –
Cc1ccc(-c2cc(C(=O)N/N=C/C(Br)=C/c3ccccc3)n[nH]2)o1 | – | inconclusive [inhibitor, single point]
CC(=O)Nc1cccc(-c2ccnc3c2CC(C(=O)Nc2ccc(Cl)cc2)O3)c1 (configuration not stated) | – | inconclusive [inhibitor, partial curve]
Cc1c(C(=O)C(=O)N2CCCc3ccccc32)c2ccccc2n1C | – | active: 11.2 µM
O=C1N/C(=N\N=C\c2ccco2)SC1Cc1ccccc1[N+](=O)[O-] (configuration not stated) | inactive: -1.06% | –
CC(C)C1C(=O)N(Cc2cn(CCC3OCCCO3)nn2)CCS(=O)(=O)N1Cc1ccc(-c2cccc(CO)c2)cc1 (configuration not stated) | inactive: -8.99% | –
CCCCOC(=O)Cn1c2ccc(OC)cc2c2nc3ccccc3nc21 | – | inconclusive [inhibitor, single point]
CCOC(=O)c1cccc(NC(=O)N2CC=C(c3c[nH]c4ccccc34)CC2)c1 | – | inconclusive [inhibitor, single point]
CC(C)CSC1=NSC2=NC(=O)/C(=C\c3coc4ccccc4c3=O)C(=N)N12 | – | inconclusive [inhibitor, single point]
CCOC(=O)c1cnc(-n2nc(C)cc2C)nc1NNc1nc(-c2ccccc2)cc(-c2ccccc2)n1 | inactive: 18.7% | –

Compound | max response | Potency
CCCOc1ccc(NC(=O)CC2C(=O)N(c3ccc(OCC)cc3)C(=S)N2C2CC2)cc1 (configuration not stated) | inactive: -18.2% | –
CN1/C(=C/C=C(C#N)C#N)C(C)(C)c2ccccc21 | – | inconclusive [inhibitor, single point]
CCOC(=O)N1C/C(=C\c2ccccc2)C(=O)/C(=C/c2ccccc2)C1 | – | active: 8.86 µM
Cc1ccc(-c2nc(C=Nc3ccc(O)cc3)c(O)o2)cc1 | inactive: -18.6% | –
Cc1c(-c2nnc(SCC(=O)Nc3ccccc3F)o2)nnn1-c1ccc(F)cc1 | – | inconclusive [inhibitor, partial curve, poor fit]
CCCCN1C(=O)c2cccc3cc(O)cc(c23)C1=O | – | inconclusive [inhibitor, partial curve]
Cc1ccc(NC(=O)/C(C#N)=C/c2ccc(C)s2)c(C)c1 | – | inconclusive [inhibitor, single point]
Nc1c(C(=O)Nc2ccc(S(=O)(=O)N3CCCC3)cc2)sc2nc3ccc(OC(F)(F)F)cc3cc12 | – | active: 18.4 µM
O=c1[nH]c2ccccc2nc1/C=C(\O)c1cccs1 | – | active: 4.61 µM
Cc1cccc(CS(=O)(=O)c2ncc(Cl)c(C(=O)Nc3c(C)cccc3C)n2)c1 | – | inconclusive [inhibitor, single point]
Cc1ccc(NC(=O)Cn2ncc(Cl)c(Cl)c2=O)cc1S(=O)(=O)N1CCCCC1 | – | inconclusive [inhibitor, single point]
CCOc1ccc(Cn2c3ccc(OC)cc3c3nc4ccccc4nc32)cc1 | – | inconclusive [inhibitor, single point]
O=C(Nc1cc(Cl)cc2c1-c1ccc(Cl)cc1C2O)C(Cl)Cl (configuration not stated) | inactive: -14.6% | –
CN1C(=O)C(O)(C2COC(C)(C)CC2=O)c2cc(Br)ccc21 (configuration not stated) | inactive: -0.606% | –
c1ccc2c(c1)nc(NCC1CCCO1)c1nnnn12 (configuration not stated) | – | inconclusive [inhibitor, single point]
O=C1Nc2ccc(Br)cc2C12NNc1ccccc1O2 (configuration not stated) | – | active: 15.8 µM
COc1ccc(/C=N/NC(=O)c2[nH]nc3c2CCc2ccccc2-3)cc1OC | – | active: 3.96 µM
N#CC(C#N)=C1C=C2C=C(N3CCOCC3)CCC2CC1 (configuration not stated) | inactive: 51.3% | –
CC(=O)Nc1ccc(-c2ccnc3c2CC(C)(C(=O)NCc2ccco2)O3)cc1 (configuration not stated) | – | active: 7.04 µM
CCOc1ncccc1C(=O)OCc1ccc(C(=O)OC)cc1 | – | inconclusive [inhibitor, single point]
CN(C)c1ccc(/C=C/c2ccnc3ccccc23)cc1N | – | inconclusive [inhibitor, single point]
O=C(NCc1cccnc1)c1ccc([N+](=O)[O-])o1 | – | inconclusive [inhibitor, single point]
O=C1NC(c2ccccc2Br)=N/C1=C\c1ccco1 | inactive: -4.52% | –
CCOc1cc(/C=C(/C#N)C(=O)Nc2ccc(O)cc2)cc(Br)c1O | – | active: 17.7 µM
